The source of these data is the supplement of paper PMC8728848.

The sample as a whole holds a higher share of the strongest signals than the screen did.

In this experiment the test system is GlcNAc(b1-4)GlcNAc. The experiment is described as follows: glycan array binding signal (z-score within array); higher = stronger binding. The following applies: glycan notation: IUPAC condensed, linker removed. A digest of the protocol: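 From the Consortium for Functional Glycomics database, 3228 arrays were curated, keeping only those whose protein sequence was available. Binding is given as a within-array Z-score averaged across arrays sharing a protein sequence and across linkers. Negative Z-scores can be read as non-binding.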
In the case of VWF (Homo sapiens) (chain not printed), the “glycan array binding signal (z-score)” value was -0.308.
Consider “CLEC-2 (Homo sapiens) (chain not printed)”, for which the “glycan array binding signal (z-score)” value was -0.093.
For “Thrombomodulin Extracellular (Homo sapiens) (chain not printed)” the value was 1.96.
